In PubChem BioAssay (Tox21):
Where “and” joins values, the source holds several entries; their conditions need not be identical. Identical values can stand only once. The inconclusive results got no clear call from the source; some entries with a clear call stand among them for comparison. Where the call is inconclusive, the potency comes from a doubtful curve fit. A structure can be active in one record and inactive in another. Calls of active or inactive are those of the source. The call rests on the fitted dose curve; in most records, active means well fitted curve in the direction sought with a large enough effect in the repeat runs; inconclusive means weak or mixed curves; inactive means no such curve, though single readings can be large; an effect the other way counts as inactive or inconclusive.

experiment: Human pregnane X receptor (PXR) small molecule agonists, qHTS cell viability counter screen (AID 1346977); details: PXR-Luc HepG2 viability, CellTiter-Fluor, 24 h; series mostly up to 92.4 µM; activity change, negative = cytotoxicity: at the top concentration; further: nearly all actives have a fitted effect of over 50% in size
Summary of the method: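 Readout is CellTiter-Fluor fluorescence from PXR-Luc HepG2 cells. Plated cells rested 5hr, then were treated with compounds for 24hr at 37C and 5% CO2, with reagent present during the last hour.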
Potency means the concentration at half of the fitted maximal effect; tags describe the fitted curve by direction and shape.

SMILES	Potency
O=C1C=CC(=O)N1	inconclusive: 70.4 µM [cytotoxic, single point]
CN(C)CCOC(c1ccccc1)c1ccc(Br)cc1 (stereo not given)	inconclusive: 13.3 µM [cytotoxic, partial curve]
COCCCC/C(=N\OCCN)c1ccc(C(F)(F)F)cc1	inconclusive: 29.8 µM [cytotoxic]
Cc1ccc(O)c(O)c1	inconclusive: 74.8 µM [cytotoxic, single point]
CCc1c(C(=O)NN2CCCCC2)nn(-c2ccc(Cl)cc2Cl)c1-c1ccc(Br)cc1	inconclusive: 68.6 µM [cytotoxic, single point]
Cc1oc(-c2ccccc2)nc1CCC(=O)c1ccc(CC2SC(=O)NC2=O)cc1 (stereo not given)	inconclusive: 29.8 µM [cytotoxic, single point]
Nc1nc2ccccc2n1Cc1ccc(F)cc1	inconclusive: 26.6 µM [cytotoxic, single point]
O=C(O)c1cc(N=Nc2ccc([N+](=O)[O-])cc2)ccc1O	active: 53.5 µM
CCC(C)n1ncn(-c2ccc(N3CCN(c4ccc(OC[C@H]5CO[C@](Cn6cncn6)(c6ccc(Cl)cc6Cl)O5)cc4)CC3)cc2)c1=O (stereo not given in full)	inconclusive: 23.7 µM [cytotoxic, partial curve, poor fit]

experiment: Caspase-3/7 induction in HepG2 cells by small molecules, qHTS assay (AID 1346978); details: HepG2 caspase-3/7 activation, Caspase-Glo luminescence, 17 h; series mostly up to 92.4 µM; caspase activation: at the top concentration; further: nearly all actives have a fitted effect of over 15% in size; on caspase activation: on the % scale 0 is the no-effect control and ±100 the full control effect
Summary of the method: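 Wild-type HepG2 cells, 2,000/well, settled 5 hr at 37 C and 5% CO2, then compound-treated for 17 hr; caspase-3/7 activity read by luminescent Caspase-Glo 3/7 after 30 min at room temperature.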

SMILES	Potency	caspase activation
CN(C)c1ccc(C(=C2C=CC(=[N+](C)C)C=C2)c2ccc(N(C)C)cc2)cc1	active: 19.2 µM and active: 27.3 µM and active: 26.6 µM	–
CNCC[C@H](Oc1cccc2ccccc12)c1cccs1	inconclusive: 33.5 µM [activator, single point]	–
COc1cccc2c1C(=O)c1c(O)c3c(c(O)c1C2=O)C[C@@](O)(C(=O)CO)C[C@@H]3O[C@H]1C[C@H](N)[C@H](O)[C@H](C)O1	inconclusive: 6.1 µM [activator, partial curve, poor fit]	–
COC(=O)C1=C(C)NC(COC(N)=O)=C(C(=O)OC(C)C)C1c1cccc(Cl)c1Cl (stereo not given)	inconclusive: 33.5 µM [activator, single point]	–
O=C(CCCN1CCC(O)(c2ccc(Cl)cc2)CC1)c1ccc(F)cc1	active: 54.5 µM	–
CC1(C)CCC(C)(C)c2cc(C(=O)Nc3ccc(C(=O)O)cc3)ccc21	inconclusive: 68.6 µM [activator]	–
Cc1cccc(Nc2ccccc2)c1	inconclusive: 77 µM [activator, single point]	–
O=C1NCCN1CCN1CCC(c2cn(-c3ccc(F)cc3)c3ccc(Cl)cc23)CC1	inconclusive: 33.5 µM [activator, single point]	–
COC(=O)C1=C(C)NC(C)=C(C(=O)OCCCN2CCC(c3ccccc3)(c3ccccc3)CC2)C1c1cccc([N+](=O)[O-])c1 (stereo not given)	inconclusive: 33.5 µM [activator, single point]	–
Clc1ccc2c(c1)CCc1cccnc1C2=C1CCNCC1	inconclusive: 33.5 µM [activator, single point]	–
CCN(CC)CCNc1ccc(CO)c2sc3ccccc3c(=O)c12	active: 13.3 µM	–
Cc1cccc2c1cc1ccc3cccc4ccc2c1c34	–	inactive: 0.163%
C[C@H](CCC(=O)O)[C@H]1CC[C@H]2[C@@H]3[C@H](O)C[C@@H]4C[C@H](O)CC[C@]4(C)[C@H]3CC[C@]12C	inconclusive: 68.8 µM [activator, single point]	–
Cc1cccc(C)c1NC(=O)CN1CCN(CCCC(c2ccc(F)cc2)c2ccc(F)cc2)CC1	inconclusive: 33.5 µM [activator, single point]	–
CN1CCN(C2Cc3ccccc3Sc3ccc(Cl)cc32)CC1 (stereo not given)	inconclusive: 33.5 µM [activator, single point]	–
CNCCCN1c2ccccc2CCc2ccccc21	inconclusive: 33.5 µM [activator, single point]	–

experiment: Caspase-3/7 induction in CHO-K1 cells by small molecules, qHTS cell viability counter screen (AID 1346979); details: CellTiter-Fluor fluorescence, 17 h; series mostly up to 92.4 µM; activity change, negative = cytotoxicity: at the top concentration; further: nearly all actives have a fitted effect of over 35% in size; on activity change, negative = cytotoxicity: on the % scale 0 is the no-effect control and ±100 the full control effect
Summary of the method: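 To flag cytotoxic compounds, treated CHO-K1 wild-type cells were given CellTiter-Fluor at 16hr and read fluorescently after 1hr at 37C; the caspase-3/7 luminescence was measured in these same wells.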

SMILES	Potency	activity change, negative = cytotoxicity
O=C(O)CCCCC1CCSS1 (stereo not given)	inconclusive: 33.5 µM [rising, partial curve]	–
CCCCCCCOC(=O)CCC	–	inactive: 2.86%
COc1cccc2c1C(=O)c1c(O)c3c(c(O)c1C2=O)C[C@@](O)(C(=O)CO)C[C@@H]3O[C@H]1C[C@H](N)[C@H](O)[C@H](C)O1	active: 9.67 µM and active: 21.1 µM	–
COC(=O)C1=C(C)NC(COC(N)=O)=C(C(=O)OC(C)C)C1c1cccc(Cl)c1Cl (stereo not given)	active: 13.3 µM	–
O=C(O)C1(C(=O)Nc2ccc(Cl)cc2Cl)CC1	inconclusive: 68.6 µM [cytotoxic, single point]	–
Cc1cccc2c1cc1ccc3cccc4ccc2c1c34	inconclusive: 15.7 µM [rising, full curve]	–
Cc1cccc(C)c1NC(=O)CN1CCN(CCCC(c2ccc(F)cc2)c2ccc(F)cc2)CC1	active: 29.8 µM	–
N#CSc1ccc(N)c([N+](=O)[O-])c1	active: 38.8 µM	–
OCCN1CCN(CCCN2c3ccccc3Sc3ccc(C(F)(F)F)cc32)CC1	active: 29.8 µM	–
CNCCCN1c2ccccc2CCc2ccccc21	inconclusive: 33.5 µM [cytotoxic, single point]	–
